Laboratory results taken from US11891445 (ABL BIO, dated 2024).

T1: human B7-H3 expressed on a cell surface (human cancer cell lines) (human, UniProt Q5ZPR3 29-534)
T1 construct: whole, on cells; also called cell surface expression B7-H3 antigen
T1 sequence (looked up): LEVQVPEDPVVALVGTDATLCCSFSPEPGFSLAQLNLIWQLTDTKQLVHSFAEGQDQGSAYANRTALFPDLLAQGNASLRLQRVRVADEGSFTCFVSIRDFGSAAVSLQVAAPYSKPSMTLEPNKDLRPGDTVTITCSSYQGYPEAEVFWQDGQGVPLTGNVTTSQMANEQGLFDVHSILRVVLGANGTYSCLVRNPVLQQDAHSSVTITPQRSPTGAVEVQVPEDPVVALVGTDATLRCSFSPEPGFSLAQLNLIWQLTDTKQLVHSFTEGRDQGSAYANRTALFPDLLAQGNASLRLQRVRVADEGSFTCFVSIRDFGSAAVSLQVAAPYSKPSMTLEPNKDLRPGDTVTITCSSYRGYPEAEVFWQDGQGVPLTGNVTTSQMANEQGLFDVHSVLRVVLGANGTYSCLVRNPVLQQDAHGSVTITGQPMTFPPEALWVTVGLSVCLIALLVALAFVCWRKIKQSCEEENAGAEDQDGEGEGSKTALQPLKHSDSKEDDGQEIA

T2: B7-H4 (Sino Biological, Cat #: 10738-H08H) (human, UniProt Q7Z7D3 25-259)
T2 construct: extracellular domain; Bought
T2 sequence (looked up): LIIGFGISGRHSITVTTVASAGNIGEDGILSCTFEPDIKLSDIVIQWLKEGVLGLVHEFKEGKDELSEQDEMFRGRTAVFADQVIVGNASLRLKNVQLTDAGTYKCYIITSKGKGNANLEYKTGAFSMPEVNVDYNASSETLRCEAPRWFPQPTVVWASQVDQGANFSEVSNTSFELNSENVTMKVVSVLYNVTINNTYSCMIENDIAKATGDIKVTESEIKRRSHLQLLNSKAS

T3: B7-H2 (Sino Biological, Cat #: 11559-H08H) (human, UniProt O75144 19-256)
T3 construct: extracellular domain; Bought
T3 sequence (looked up): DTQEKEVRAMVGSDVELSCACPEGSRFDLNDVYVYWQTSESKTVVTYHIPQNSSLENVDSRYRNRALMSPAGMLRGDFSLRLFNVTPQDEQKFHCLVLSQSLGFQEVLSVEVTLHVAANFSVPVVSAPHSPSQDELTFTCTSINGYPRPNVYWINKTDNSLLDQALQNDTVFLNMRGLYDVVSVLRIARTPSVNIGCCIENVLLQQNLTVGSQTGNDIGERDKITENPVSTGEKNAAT


How the values were obtained:
[1] = molecular target: T1, human B7-H3 expressed on a cell surface …; test: flow cytometry, A-498 cells, antibody 10 ug/ml
Description: Using various kinds of cancer cells A2780 (human ovarian cancer, ECACC, 93112519), SKOV-3 (human ovarian adenocarcinoma, ATCC® HTB-77™) OVCAR-3 (human ovarian adenocarcinoma, ATCC® HTB-161™), HCT116 (colon cancer cell, ThermoFIshcer Sci), HT29 (olorectal adenocarcinoma, ATCC® HTB-38™), DLD-1 (colorectal adenocarcinoma cell lines, ATCC® CCL-221™), Calu-6 (Non-small-cell lung carcinoma, ATCC® HTB-56™), HCC1954 (TNM stage IIA, grade 3, ductal carcinoma, ATCC® CRL-2338™), HCC1187 (TNM stage IIA, ATCC® CLC-2322™), renal cancer cell line 786-0 (renal cell adenocarcinoma, ATCC® CRL-1932™), A498 (kidney carcinoma, ATCC® HTB-44™), Panc-1 (pancreas epithelioid carcinoma, TCC CRL-1469™), NCI-N87 (gastric carcinoma, TCC CRL-5822™), HeLa (cervix adenocarcinoma, ATCC® CCL-2™), JeKo-1 (Lymphoma, ATCC® CRL-3006™) and FACSCalibur (BD Biosciences) device, the degree of binding of anti-B7-H3 antibody to B7-H3 was measured as follows.
After dissociating each cell line and washing it with PBS buffer, the number of cells was counted and adjusted to 2×10^5 cells/200 µl PBS, and then was treated with 10 µg/ml of B7-H3 monoclonal antibodies prepared in Example 2. Reaction was allowed at 4° C. for 1 hr. After washing the reacted cells in PBS, the FITC-labeled constant region (Fc)-specific antibody (Goat anti-human IgG FITC conjugate, Fc specific, Sigma, F9512, concentration: 2.0 mg/ml)) was diluted by 1:500 and added 100 µl per well. and Reaction was allowed at 4° C. for 1 hr. After the reaction, cells were washed in PBS and analyzed using the FACSCalibur device. The negative control group was treated by the FITC-labeled constant region (Fc) specific antibody only. To compare expression degrees of B7-H3 among different cancer cell lines, the value for the peak shift in the experimental groups treated with the B7-H3 monoclonal antibody was divided by the value for the peak shift in the negative control group (MFI Ratio, Mean Fluorescence Intensity Ratio).

[2] = molecular target: T2, B7-H4 (Sino Biological, Cat #: …); test: ELISA on plate-coated recombinant B7 family proteins (1 ug/ml)
Procedure: (§1) Specifically, after diluting the recombinant human B7 family proteins at a concentration of 1 µg/ml and putting them in a 96-well plate (Nunc-Immuno Plates, NUNC) in 100 µl per well, it was reacted at 4° C. for 16 hrs for coating. The recombinant proteins used in Example 1 was used.
(§2) Then, after removing proteins and washing it with PBST, 200 µl of PBS buffer comprising 1% BSA (bovine serum albumin) was put per well and it was reacted at 37° C. for 2 hrs to block non-specific binding. Then, after diluting the anti-B7-H3 antibodies prepared in Example 2 in 10 µg/ml on a 96-well plate, 100 µl was put per well and it was reacted at 37° C. for 1 hr. Then after it was washed with PBST. In order to detect antibodies bound to an antigen, HRP-connected anti-human IgG F(ab')2 antibody (Goat anti-Human IgG F(ab')2 Cross-Adsorbed Secondary Antibody, HRP, Pierce, 31414) was diluted in PBS comprising 1% bovine serum albumin (BSA) by 1:10,000. 100 µl was put per well and it was reacted at 37° C. for about 1 hr. After washing it with PBST again, TMB (Tetramethylbenzidine, Sigma, T0440) 100 µl was put to develop color. After reacting it at RT for 5-10 min, 50 µl of H_2SO_4 was put to finish the reaction, and the absorbance at 450 nm and 650 nm was measured by using a micro plate reader (molecular device).

[3] = molecular target: T3, B7-H2 (Sino Biological, Cat #: …); test: as above
Procedure: as §1, §2

[4] = molecular target: T1, human B7-H3 expressed on a cell surface …; test: flow cytometry, MDA-MB-468 cells, antibody 10 ug/ml

Binder	MFI Ratio [1]	binding result [2]	binding result [3]	MFI Ratio [4]
anti-B7-H3 antibody D8G (full IgG form) (antibody) heavy: EVQLLESGGGLVQPGGSLRLSCAASGFTFSSYSMSWVRQAPGKGLEWVSGIYSDGSNTYYADSVKGRFTISRDNSKNTLYLQMNSLRAEDTAVYYCAKMLHRFDYWGQGTLVTVSS[human IgG1 constant region not shown] light: QSVLTQPPSASGTPGQRVTISCSGSSSNIGSNSVTWYQQLPGTAPKLLIYADSQRPSGVPDRFSGSKSGTSASLAISGLRSEDEADYYCGTWDSSLNAYVFGGGTKLTVLGQPKAAPSVTLFPPSSEELQANKATLVCLISDFYPGAVTVAWKADSSPVKAGVETTTPSKQSNNKYAASSYLSLTPEQWKSHRSYSCQVTHEGSTVEKTVAPAECS	25 ratio	no binding	no binding	11.4 ratio
anti-B7-H3 antibody 10F11 (full IgG form) (antibody) heavy: EVQLLESGGGLVQPGGSLRLSCAASGFTFSSYGMSWVRQAPGKGLEWVSGIYSGGSSKYYADSVKGRFTISRDNSKNTLYLQMNSLRAEDTAVYYCAKNRLRFDYWGQGTLVTVSS[human IgG1 constant region not shown] light: QSVLTQPPSASGTPGQRVTISCTGSSSNIGSNSVTWYQQLPGTAPKLLIYSDSHRPSGVPDRFSGSKSGTSASLAISGLRSEDEADYYCGTWDASLNAYVFGGGTKLTVLGQPKAAPSVTLFPPSSEELQANKATLVCLISDFYPGAVTVAWKADSSPVKAGVETTTPSKQSNNKYAASSYLSLTPEQWKSHRSYSCQVTHEGSTVEKTVAPAECS	35 ratio	no binding	no binding	17.2 ratio

Further lines, results first:

MFI Ratio [1]	binding result [2]	binding result [3]	MFI Ratio [4]	Binder
26 ratio	no binding	no binding	9.7 ratio	anti-B7-H3 antibody C4I (full IgG form) (antibody, also called C41) heavy: EVQLLESGGGLVQPGGSLRLSCAASGFTFSGYYMSWVRQAPGKGLEWVSLISPSSGSIYYADSVKGRFTISRDNSKNTLYLQMNSLRAEDTAVYYCAKGLTKFDYWGQGTLVTVSS[human IgG1 constant region not shown] light: QSVLTQPPSASGTPGQRVTISCTGSSSNIGSNDVSWYQQLPGTAPKLLIYANSHRPSGVPDRFSGSKSGTSASLAISGLRSEDEADYYCGSWDDSLSGYVFGGGTKLTVLGQPKAAPSVTLFPPSSEELQANKATLVCLISDFYPGAVTVAWKADSSPVKAGVETTTPSKQSNNKYAASSYLSLTPEQWKSHRSYSCQVTHEGSTVEKTVAPAECS
37 ratio	no binding	no binding	17.6 ratio	anti-B7-H3 antibody F6V (full IgG form) (antibody) heavy: EVQLLESGGGLVQPGGSLRLSCAASGFTFSDYAMSWVRQAPGKGLEWVSGISPGGSNTYYADSVKGRFTISRDNSKNTLYLQMNSLRAEDTAVYYCAKDAWIARLLLFDYWGQGTLVTVSS[human IgG1 constant region not shown] light: QSVLTQPPSASGTPGQRVTISCSGSSSNIGSNAVTWYQQLPGTAPKLLIYYNNKRPSGVPDRFSGSKSGTSASLAISGLRSEDEADYYCGTWDDSLSGYVFGGGTKLTVLGQPKAAPSVTLFPPSSEELQANKATLVCLISDFYPGAVTVAWKADSSPVKAGVETTTPSKQSNNKYAASSYLSLTPEQWKSHRSYSCQVTHEGSTVEKTVAPAECS
35 ratio	no binding	no binding	16.2 ratio	anti-B7-H3 antibody B5 (full IgG form) (antibody) heavy: EVQLLESGGGLVQPGGSLRLSCAASGFTFSDYAMSWVRQAPGKGLEWVSSISSGSGSIYYADSVKGRFTISRDNSKNTLYLQMNSLRAEDTAVYYCAKNLIPLDYWGQGTLVTVSS[human IgG1 constant region not shown] light: QSVLTQPPSASGTPGQRVTISCSGSSSNIGSNAVSWYQQLPGTAPKLLIYYNSHRPSGVPDRFSGSKSGTSASLAISGLRSEDEADYYCGSWDASLNAYVFGGGTKLTVLGQPKAAPSVTLFPPSSEELQANKATLVCLISDFYPGAVTVAWKADSSPVKAGVETTTPSKQSNNKYAASSYLSLTPEQWKSHRSYSCQVTHEGSTVEKTVAPAECS
